Laboratory results from PubChem BioAssay AID624417 (National Center for Advancing Translational Sciences (NCATS), 2012).
Hit rate of the full screen: of about 410,000 compounds, about 6,400 (1.6%) were called active. Inconclusive means that the source gave no clear call. Such entries were picked first, then a sample of the others. Calls come from the whole dose curve; as a rule, active = well fitted inhibition curve with a large enough effect; inconclusive = small, poorly fitted or top-dose-only effect; inactive = no such curve, though single readings can be large or run the other way. No potency is given beside an inconclusive call; the fits are too rough.
Note: nearly all actives have a fitted effect of over 55% in size.
Potency is the fitted concentration of half-maximal effect; tags give direction and shape of the fitted curve.

Each compound was assayed against Glucagon-like peptide 1 receptor (Homo sapiens) (UniProt P43220) (assay: qHTS of GLP-1 Receptor Inverse Agonists (Inhibition Mode)). Conditions: HEK293 GLP-1R CRE-luciferase, luminescence, 24 h, GLP-1R form is constitutively active; series mostly up to 38.3 µM.
Chain of UniProt P43220 (P43220 whole entry, looked up): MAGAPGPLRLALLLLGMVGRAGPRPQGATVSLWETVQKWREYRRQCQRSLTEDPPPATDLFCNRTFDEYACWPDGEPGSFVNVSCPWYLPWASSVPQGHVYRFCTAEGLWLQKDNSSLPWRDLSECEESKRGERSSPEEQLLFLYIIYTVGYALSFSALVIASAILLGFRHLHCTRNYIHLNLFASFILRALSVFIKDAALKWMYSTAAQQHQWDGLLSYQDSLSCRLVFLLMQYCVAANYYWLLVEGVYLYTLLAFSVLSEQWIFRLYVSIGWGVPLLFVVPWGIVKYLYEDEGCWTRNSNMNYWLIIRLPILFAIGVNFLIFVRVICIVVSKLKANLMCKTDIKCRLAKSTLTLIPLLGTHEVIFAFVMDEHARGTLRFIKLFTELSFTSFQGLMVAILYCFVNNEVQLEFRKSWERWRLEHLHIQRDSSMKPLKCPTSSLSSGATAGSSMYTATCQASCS
In short: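 Seeding at 200 cells/uL, 12 h culture, 24 hr compound treatment, then luciferase reagent and a luminescence read; cells are HEK293 stably expressing a constitutively active GLP-1R plus cAMP-responsive luciferase.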
For `COc1ccccc1CN(C)C(=O)C(c1ccccc1)c1ccccc1`, the Potency was active: 12.6 µM. In the case of `CC(=O)N(Cc1cccc(Br)c1)c1ccc(N2CCOCC2)c(Cl)c1`, the Potency is reported as inconclusive [inhibitor, single point]. `COc1ccc(NC(=O)c2ccc(OC(=S)N(C)c3ccc(OC)cc3)cc2)cc1` was tested, and the Potency was “inactive”. In the case of `CCOC(=O)c1ccc(NC(=O)N2CCN(Cc3ccccc3)CC2)cc1`, the Potency is reported as inconclusive [inhibitor, single point]. With `Cc1nc(C)c(CCNS(=O)(=O)c2ccc(F)cc2)s1` the Potency was “inactive”. In the case of `Cc1ccccc1OCCC(=O)N(CC(=O)Nc1ccccc1C(F)(F)F)Cc1ccco1`, the Potency is reported as inconclusive [inhibitor, partial curve, poor fit]. With `COc1ccc(C(CNC(=O)c2ccc(NS(=O)(=O)c3ccc(F)c(C)c3)cc2)N2CCCC2)cc1` (stereo not drawn) the Potency was inconclusive [inhibitor, partial curve, poor fit]. For `O=C(Nc1ccc(Sc2ccc(Br)cc2)cc1)c1ccco1`, the Potency was inconclusive [inhibitor, single point]. `O=C(CCl)N(c1ccccc1)C1CCS(=O)(=O)C1` (stereo not drawn) was tested, and the Potency was inconclusive [inhibitor, full curve, poor fit]. With `COC(=O)c1sc(-c2ccc(C(C)(C)C)cc2)cc1NC(=O)c1ccccc1C(=O)O` the Potency was inconclusive [inhibitor, partial curve, poor fit]. `CCOC1=C2[C@@H](CN(S(=O)(=O)c3ccccc3C)[C@H]2c2ccc(Cl)cc2)[C@H]2C(=O)N(C3CCCCC3)C(=O)[C@H]2C1` was tested, and the Potency was inconclusive [inhibitor, single point]. With `O=C1NN(c2ccccc2)C(=O)/C1=C\c1ccc2c(c1)OCO2` the Potency was inconclusive [inhibitor, full curve, poor fit]. With `CCOC(=O)C1Oc2ccccc2C(c2cccc3ccccc23)=C1C(=O)OC` (stereo not drawn) the Potency was inconclusive [inhibitor, single point]. `O=C1Cc2ccccc2C(c2ccc(Cl)cc2Cl)N1` (stereo not drawn) was tested, and the Potency was inconclusive [inhibitor, partial curve, poor fit]. In the case of `O=[N+]([O-])c1ccc(Oc2ccc(OCc3ccccc3)cc2)nc1`, the Potency is reported as inconclusive [inhibitor, partial curve, poor fit]. In the case of `FC(F)(F)c1cccc(N2CCN(CC3CC4C=CC3C4)CC2)c1` (stereo not drawn), the Potency is reported as “inactive”. For `CC(C(=O)Nc1ccc(Cl)cc1)N(C)Cc1cccs1` (stereo not drawn), the Potency was inconclusive [inhibitor, single point]. For `Cc1ccc(Nc2nnc(SCC(=O)Nc3cccc(S(=O)(=O)N4CCCCC4)c3)s2)cc1`, the Potency was inconclusive [inhibitor, partial curve, poor fit]. `CC(C)(C)c1ccc(NC(=O)NC2CCCc3ccccc32)cc1` (stereo not drawn) was tested, and the Potency was active: 3.16 µM. With `O=C(CCC1N=C2c3ccccc3N=C(SCc3ccccc3Cl)N2C1=O)NCc1ccco1` (stereo not drawn) the Potency was inconclusive [inhibitor, single point]. For `Cc1ccccc1-c1cc2nccc(-c3cc(Cl)ccc3O)n2n1`, the Potency was “inactive”. For `COc1ccccc1N1CCN(C(=O)C2CCN(S(=O)(=O)c3ccc4c(c3)CC(C)N4C(=O)C3CC3)CC2)CC1` (stereo not drawn), the Potency was inconclusive [inhibitor, partial curve, poor fit]. In the case of `COc1ccc(NC(=O)CN2CCCC(C)C2)c([N+](=O)[O-])c1` (stereo not drawn), the Potency is reported as inconclusive [inhibitor, partial curve, poor fit]. `Clc1ccc(/C=N/N2CCN(Cc3ccccc3Cl)CC2)cc1` was tested, and the Potency was inconclusive [inhibitor, partial curve, poor fit]. In the case of `O=C1CSC(c2cccc(O)c2)N1Cc1ccccc1` (stereo not drawn), the Potency is reported as inconclusive [inhibitor, single point]. In the case of `CCn1c(/C=C/c2ccccc2C)nc2ccccc2c1=O`, the Potency is reported as inconclusive [inhibitor, single point]. `COc1ccc(C2(c3ccc(OC)cc3)NC(=O)N(CC(=O)N(C)C3CCC(C)CC3)C2=O)cc1` (stereo not drawn) was tested, and the Potency was inconclusive [inhibitor, single point]. For `COc1ccccc1NC(=O)Cn1c(=O)n(-c2cccc(C)c2)c(=O)c2c1c1cc(C)ccc1n2C`, the Potency was “inactive”. `COc1ccc(-c2coc3c2c(C)cc2oc(=O)c(CC(=O)O)c(C)c23)cc1` was tested, and the Potency was inconclusive [inhibitor, partial curve, poor fit]. In the case of `CCCc1ccc(NS(=O)(=O)c2c(C)oc(C)c2C(=O)OC)cc1`, the Potency is reported as inconclusive [inhibitor, partial curve, poor fit]. With `CCOC(=O)C1=C(C)N(C)C(=S)NC1c1ccc(Cl)cc1Cl` (stereo not drawn) the Potency was inconclusive [inhibitor, single point]. With `CCCCNc1ncnc2c1cnn2-c1ccc(C)cc1C` the Potency was inconclusive [inhibitor, single point]. For `CCn1c(=N)n(CC(O)COc2ccccc2)c2ccccc21` (stereo not drawn), the Potency was inconclusive [inhibitor, partial curve, poor fit]. For `OCCCCNCc1ccc(OCc2ccccc2Cl)cc1`, the Potency was “inactive”. With `COc1cccc(/C=N/Nc2ncnc3scc(-c4ccccc4)c23)c1O` the Potency was inconclusive [inhibitor, partial curve, poor fit]. In the case of `C=C(C)Cn1c(C)cc(C)c(S(=O)(=O)c2ccc(C)cc2)c1=O`, the Potency is reported as inconclusive [inhibitor, partial curve, poor fit]. In the case of `CCN(CC)CCNC(=O)c1cc(Nc2ccc(OC)c(OC)c2)nc2ccccc12`, the Potency is reported as inconclusive [inhibitor, partial curve, poor fit]. `COc1ccc(N2CC(C(=O)N(C)CC(=O)Nc3ccc(Cl)c(C(F)(F)F)c3)CC2=O)c(OC)c1` (stereo not drawn) was tested, and the Potency was inconclusive [inhibitor, partial curve, poor fit]. With `COc1ccc(-c2cc(-c3ccccc3O)[nH]n2)cc1` the Potency was inconclusive [inhibitor, single point]. In the case of `COc1cccc(OCCNCc2ccccc2)c1`, the Potency is reported as “inactive”. `COc1ccc(N(Cc2nnc3n2CCCCC3)C(=O)Nc2cccc(C)c2)cc1Cl` was tested, and the Potency was “inactive”. `CCN1C(=O)[C@@H]2Cc3c([nH]c4ccccc34)C(c3cc(OC)c(OC)c(OC)c3)N2C1=S` (stereo partly drawn) was tested, and the Potency was inconclusive [inhibitor, single point]. For `Cc1c(C(=O)N2CCC2)oc2ccc(Br)cc12`, the Potency was inconclusive [inhibitor, single point]. For `COc1ccccc1C(c1nnnn1Cc1ccccc1)N1CCN(c2nc3ccccc3s2)CC1` (stereo not drawn), the Potency was inconclusive [inhibitor, partial curve, poor fit]. For `CC1CCN(S(=O)(=O)c2ccc(C(=O)Nc3nnc(C4=COCCO4)o3)cc2)CC1`, the Potency was inconclusive [inhibitor, single point]. With `COc1ccc(-c2nc3c4ccccc4ccn3c2Cc2ccc(C)cc2)cc1OC` the Potency was inconclusive [inhibitor, single point]. In the case of `N/C(Cc1ccc(Cl)cc1Cl)=N\OC(=O)c1ccccc1F`, the Potency is reported as inconclusive [inhibitor, partial curve, poor fit]. For `COc1ccc2cc(/C(C)=N/NC(=O)C3CC3)ccc2c1`, the Potency was “inactive”. `O=C(CNC(=O)OCc1ccccc1)Oc1cc2oc(=O)cc(-c3ccccc3)c2cc1Cl` was tested, and the Potency was inconclusive [inhibitor, partial curve, poor fit]. For `C=CC[n+]1c(-c2ccc(OCC)cc2)csc1NNC(=O)Nc1ccccc1`, the Potency was “inactive”. For `CC(=O)Oc1ccc(CN2C(=O)C(CCc3ccccc3)ON=C2c2cnccn2)cc1` (stereo not drawn), the Potency was inconclusive [inhibitor, partial curve, poor fit]. In the case of `COc1cccc(-n2nnnc2SCC(=O)NCc2ccco2)c1`, the Potency is reported as inconclusive [inhibitor, single point]. `CC1c2cc3c(cc2CCN1C(=O)c1cccc(F)c1)OCCCO3` (stereo not drawn) was tested, and the Potency was inconclusive [inhibitor, partial curve]. With `CC1(c2cccc(Br)c2)NC(=O)N(CC(=O)Nc2ccc(F)cc2)C1=O` (stereo not drawn) the Potency was inconclusive [inhibitor, partial curve, poor fit]. `Cc1nc2nc(SCC(=O)Nc3ccccc3Cl)nn2c(C)c1Cc1ccccc1` was tested, and the Potency was inconclusive [inhibitor, single point]. With `CN(C)CCCNC(=O)C(=O)NCC(c1ccc2c(c1)OCO2)N1CCOCC1` (stereo not drawn) the Potency was “inactive”. In the case of `Cc1nn(CCOc2ccccc2)c(=O)n1-c1ccccc1`, the Potency is reported as “inactive”. For `COc1cc2c(cc1OC)C(COc1ccc(F)cc1)N(C(=O)c1cccc(F)c1)CC2` (stereo not drawn), the Potency was inconclusive [inhibitor, single point]. For `CN1CCN(C(=O)Cn2ncc3c4ccccc4n(Cc4ccc(F)cc4)c3c2=O)CC1`, the Potency was inconclusive [inhibitor, single point]. For `CCOc1ccc(Br)cc1/C(C)=N\NC1=NCCN1`, the Potency was inconclusive [inhibitor, partial curve, poor fit]. With `O=C(c1ccc(Br)cc1)N(Cc1cccs1)c1ccc(F)cc1` the Potency was inconclusive [inhibitor, single point]. For `COc1ccc(C(CC(=O)c2ccccc2)C2CCCCC2=O)cc1` (stereo not drawn), the Potency was inconclusive [inhibitor, single point]. With `Cc1cc(C)c(S(=O)(=O)Nc2ccc3oc4c(c3c2)C(=O)CC(C)(C)C4)cc1C` the Potency was inconclusive [inhibitor, single point].
